Assay results from paper PMC6919601, “Identification of Plasmodium dipeptidyl aminopeptidase allosteric inhibitors by high throughput screening” (PLoS ONE, 2019).
Screen size: about 110,000 compounds; about 230 (0.21%) showed an effect of 50% or more. Some of the results follow.

The compounds below were run against DPAP1 (Plasmodium falciparum, UniProt Q8IIJ9) (assay: primary screen, percent inhibition; read by cleavage of a fluorogenic dipeptide substrate; higher = more effect of the substance).
Set-up: species or system P. falciparum D10 trophozoite lysates; single well
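Note: 30 min substrate incubation versus DMSO and 10 µM JCP410 controls.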

Sequence of DPAP1 (Q8IIJ9 whole entry, looked up): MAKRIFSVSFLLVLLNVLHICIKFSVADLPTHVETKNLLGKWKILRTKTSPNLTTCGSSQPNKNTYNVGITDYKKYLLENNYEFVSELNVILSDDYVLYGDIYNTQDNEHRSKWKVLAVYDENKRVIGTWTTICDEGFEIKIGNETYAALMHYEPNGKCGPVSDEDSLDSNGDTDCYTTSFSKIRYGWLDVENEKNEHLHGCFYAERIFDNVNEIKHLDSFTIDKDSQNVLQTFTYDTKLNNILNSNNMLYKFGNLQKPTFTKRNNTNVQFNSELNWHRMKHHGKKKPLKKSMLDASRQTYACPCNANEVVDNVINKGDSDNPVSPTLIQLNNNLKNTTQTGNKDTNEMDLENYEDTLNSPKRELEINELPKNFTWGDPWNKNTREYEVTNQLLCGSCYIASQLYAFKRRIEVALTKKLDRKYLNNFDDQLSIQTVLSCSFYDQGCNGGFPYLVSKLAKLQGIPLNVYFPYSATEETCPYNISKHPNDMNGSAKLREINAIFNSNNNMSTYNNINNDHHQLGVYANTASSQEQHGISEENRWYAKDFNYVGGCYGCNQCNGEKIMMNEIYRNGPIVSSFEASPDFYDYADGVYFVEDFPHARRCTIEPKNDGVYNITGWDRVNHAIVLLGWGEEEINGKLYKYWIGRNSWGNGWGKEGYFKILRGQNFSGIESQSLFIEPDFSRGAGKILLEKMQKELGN

First: Cc1ccc(-c2nc(-n3c(C)c4c(C)nnc(C)c4c3C)sc2C)cc1C
Second: Cc1cc2ncn(C(=O)Cn3cnc4c3c(=O)n(C)c(=O)n4C)c2cc1C
The “% Inhibition @ 10 uM” value of the first is lower: 0.778% for the first, 1.58% for the second.

First: COc1cccc(NC(=O)c2sc3nc4c(cc3c2N)CCCC4)c1
Second: O=C(CSc1nnc2c(n1)[nH]c1ccccc12)Nc1nc2c(s1)CCCC2
The “% Inhibition @ 10 uM” value of the first is lower: -1.89% for the first, 34.6% for the second.

Going from `Cc1cccc(C(=O)Nc2nc3ccc(C)cc3s2)c1` to `COc1ccc(C(=O)Nc2ccccc2C(=O)O)cc1N`, the “% Inhibition @ 10 uM” value falls from 2.26% to -5.98%.

Compared with `COc1cccc(N(CC(=O)Nc2cccc(Br)c2)S(C)(=O)=O)c1`, `CN(Cc1ccccc1)S(=O)(=O)c1nnc(NC(=O)c2ccc(F)cc2)s1` is lower in “% Inhibition @ 10 uM” value: 3.17% for the first, -4.37% for the second.

Going from `Cc1cccc(NC(=O)C2COc3ccccc3O2)c1C` (stereo not shown) to `COc1cccc2c(Nc3ccccc3C)cc(C)nc12`, the “% Inhibition @ 10 uM” value falls from -0.28% to -2.99%.

First: CC(=O)c1ccc2c(c1)OCCOCCOCCO2
Second: COc1ccc2[nH]c(N3CCOCC3)nc2c1
The “% Inhibition @ 10 uM” value of the first is higher: 0.0974% for the first, 0.0538% for the second.

Going from `C=CCc1cccc(/C=N/c2cccn3cc(-c4ccccc4)nc23)c1O` to `c1ccc(-c2cn3cccnc3n2)cc1`, the “% Inhibition @ 10 uM” value rises from -1.17% to 4.33%.

First: CC(C)c1nnc(N2C(=O)c3oc4ccccc4c(=O)c3C2c2cccs2)s1 (stereo not shown)
Second: O=C1NC(=S)N(c2ccccc2)C(=O)/C1=C\c1ccc[nH]1
The “% Inhibition @ 10 uM” value of the first is lower: -1.86% for the first, 5.31% for the second.

First: Cc1ccc(N2C(=O)/C(=C/c3ccccc3)N=C2NC(C)(C)C)cc1
Second: COC(=O)C1=C(C)N(c2ccc(Cl)cc2)C(=O)/C1=C\c1ccccc1O
The “% Inhibition @ 10 uM” value of the first is higher: 4.27% for the first, 0.392% for the second.

First: COc1ccc(CNC(=O)c2noc3c2CCc2ccccc2-3)cc1
Second: O=C(NCc1ccccc1)c1noc2c1CCCCC2
The “% Inhibition @ 10 uM” value of the first is lower: -3.77% for the first, 0.0221% for the second.

Compared with `CC(=O)c1cccc(NC(=O)C2C3CCC(C3)C2C(=O)O)c1` (stereo not shown), `CC(=O)c1cccc(NC(=O)c2ccc(C(=O)Nc3cccc(C(C)=O)c3)nc2)c1` is lower in “% Inhibition @ 10 uM” value: 3.1% for the first, 2.03% for the second.

First: Cn1cccc1Cc1nnc(SCC(=O)NCC2CCCO2)n1C (stereo not shown)
Second: CCOc1ccc(/C=C/C(=O)NCC2CCCO2)cc1 (stereo not shown)
The “% Inhibition @ 10 uM” value of the first is lower: -4.94% for the first, -1.52% for the second.

Going from `COC(=O)C1=CNC=C(C(=O)OC)C1c1ccc(C(=O)OC)cc1` to `COc1ccc(OC)c(C(=O)c2ccc(C(=O)NC3CC(C)(C)NC(C)(C)C3)cc2)c1`, the “% Inhibition @ 10 uM” value falls from -3.04% to -7.23%.

Compared with `CC(C)C[C@H](NC(=O)c1nc(-c2ccccc2)c(-c2ccccc2)s1)C(=O)NCC#N`, `COC(=O)c1ccccc1Nc1nc(-c2ccccc2)cc(-c2ccccc2)n1` is lower in “% Inhibition @ 10 uM” value: -3.48% for the first, -3.77% for the second.

First: COCCCNC(=O)c1cc2c(=O)n3cc(C)ccc3nc2n(CCN2CCOCC2)c1=N
Second: CCc1nn(C(CC)C(=O)NCCc2ccc(OC)cc2OC)c(=O)c2cc3occc3n12 (stereo not shown)
The “% Inhibition @ 10 uM” value of the first is lower: -5.14% for the first, -3.79% for the second.

Compared with `CC(=O)Nc1ccc(S(=O)(=O)N2CCN(c3cccc(Cl)c3)CC2)cc1`, `CC1CCN(S(=O)(=O)c2ccc(NC(=O)Cc3ccc(Br)cc3)cc2)CC1` is lower in “% Inhibition @ 10 uM” value: 32.8% for the first, 1.52% for the second.

Going from `CC(=O)NCCCc1nc2ccccc2n1Cc1c(F)cccc1Cl` to `COCC(=O)NCc1nc2ccccc2n1Cc1ccccc1F`, the “% Inhibition @ 10 uM” value falls from 3.41% to 2.64%.

First: COc1ccc(CCNC(=O)C(NS(=O)(=O)c2cccc3nsnc23)C(C)C)cc1OC (stereo not shown)
Second: COc1ccc(CN2C(=O)c3cccnc3C2=O)cc1S(=O)(=O)NC(C)C
The “% Inhibition @ 10 uM” value of the first is lower: -0.465% for the first, 6.97% for the second.

Going from `CCN(CC)CCOC(=O)c1ccc(NC)cc1` to `CCCCCNC(=O)c1ccc(OC)c(OC)c1`, the “% Inhibition @ 10 uM” value falls from 3.06% to -4.68%.

First: C/C(Cl)=C/CSc1nc2c(c(=O)[nH]c(=O)n2C)n1Cc1ccc(Cl)cc1
Second: Cc1ccc(Cn2ncc(Cl)c(Cl)c2=O)cc1
The “% Inhibition @ 10 uM” value of the first is lower: -0.864% for the first, 38.7% for the second.

Going from `COc1cc(CN(C(=S)NCC(=O)NCCc2ccccc2)C2CCCC2)cc(OC)c1OC` to `COc1cc(C(=O)NCCc2nc3ccccc3[nH]2)cc(OC)c1OC`, the “% Inhibition @ 10 uM” value rises from -0.406% to 19.2%.

Compared with `OCCC#CCN1CCCCC1c1cccnc1` (stereo not shown), `O=C(CCC(=O)n1ncc2ccccc21)NC1CCCCC1` is higher in “% Inhibition @ 10 uM” value: -1.69% for the first, -1.11% for the second.

Going from `O=C(CCNS(=O)(=O)c1ccc(Br)s1)NCCc1ccc(Cl)cc1` to `O=C(NCCSc1ccc(Cl)cc1)c1ccco1`, the “% Inhibition @ 10 uM” value falls from 6.29% to -7.58%.

First: CCOC(=O)N1CCN(C(=O)c2cc(-c3ccc(Cl)cc3)[nH]n2)CC1
Second: CCOc1ccc(-c2cc(C(=O)O)c3cccc(C)c3n2)cc1
The “% Inhibition @ 10 uM” value of the first is higher: 6.74% for the first, 2.09% for the second.

First: NC(=O)COc1ccc(/C=C2\S/C(=N\c3ccccc3)N(c3ccccc3)C2=O)cc1
Second: O=C(NC(Cc1ccccc1)C(=O)O)/C(=C/c1ccc(Cl)cc1)NC(=O)c1ccccc1 (stereo not shown)
The “% Inhibition @ 10 uM” value of the first is lower: 0.812% for the first, 3.95% for the second.

First: CC(O)C/N=c1\cc(O)oc2ccccc12 (stereo not shown)
Second: CCc1ccc2oc(C(=O)NCc3ccc(C)cc3)cc(=O)c2c1
The “% Inhibition @ 10 uM” value of the first is lower: -7.3% for the first, -5.31% for the second.

Compared with `Cc1ccc2c(c1)C1CC(C)(NC(=S)N1)O2` (stereo not shown), `CCCCCOC(=O)C1=C(C)NC(=O)NC1c1ccc(Cl)c(Cl)c1` (stereo not shown) is higher in “% Inhibition @ 10 uM” value: -15.3% for the first, 5.7% for the second.

Going from `CC(C)CC(C(=O)NC1CCN(Cc2ccccc2)CC1)N1Cc2ccccc2C1=O` (stereo not shown) to `CC(NC(=O)CN(C1CCCCC1)S(=O)(=O)c1ccc(Cl)cc1)c1ccccc1` (stereo not shown), the “% Inhibition @ 10 uM” value rises from -2.41% to -1.37%.

First: Cn1c(=O)c2c(ncn2CC(=O)NCc2ccccn2)n(C)c1=O
Second: Cn1ccnc1SCC(=O)Nc1ccccc1C(F)(F)F
The “% Inhibition @ 10 uM” value of the first is higher: 6.12% for the first, -6.59% for the second.

Compared with `O=C(c1cccs1)c1cn(CC(=O)N2CCCCC2)c2ccccc12`, `COc1ccc(CC(=O)Nc2c(C(=O)N3CCC(N4CCCCC4)CC3)oc3ccccc23)cc1` is lower in “% Inhibition @ 10 uM” value: 1.62% for the first, -2.53% for the second.

First: CN(C)CCN(C(=O)c1ccco1)c1nc2cc3c(cc2s1)OCO3
Second: COC(=O)Nc1ccc2c(c1)N(C(=O)CN(C)C)c1ccccc1CC2
The “% Inhibition @ 10 uM” value of the first is lower: -6.17% for the first, -0.736% for the second.

First: CCOCc1nc(O)c2c(n1)-c1ccccc1CC21CCCC1
Second: CC1(C)CC(n2c(=S)[nH]c3c(c2=O)C2(CCCCC2)Cc2ccccc2-3)CCO1 (stereo not shown)
The “% Inhibition @ 10 uM” value of the first is higher: 3.01% for the first, -1.99% for the second.

Compared with `CC1(C)Cc2c(sc(NC(=O)CO/N=C/c3ccccc3Cl)c2C#N)C(C)(C)N1`, `O=C(CSc1nc(-c2ccccc2Cl)n[nH]1)NC1CCCCC1` is higher in “% Inhibition @ 10 uM” value: -5.5% for the first, -3.63% for the second.

Compared with `CC(NC(=O)C1CCN(c2nnc(-n3cccc3)s2)CC1)C12CC3CC(CC(C3)C1)C2` (stereo not shown), `CC(C)C(NC(=O)c1ccc(C23CC4CC(CC(C4)C2)C3)cc1)C(=O)O` (stereo not shown) is lower in “% Inhibition @ 10 uM” value: 2.76% for the first, -4.69% for the second.

First: CCc1ccc(-c2nc(-c3ccccc3C)no2)cc1
Second: COc1ccc(C2=Cc3ccccc3C(C)(C)O2)cc1
The “% Inhibition @ 10 uM” value of the first is higher: 1.88% for the first, 1.72% for the second.

First: NC(=O)c1cccc(N2C(=O)c3ccccc3C2=O)c1
Second: Cc1ccc(C(=O)n2cnc3ccccc32)cc1
The “% Inhibition @ 10 uM” value of the first is higher: 5.29% for the first, 3.74% for the second.

Going from `CCN1CCN(c2ccc(NC(=O)c3ccc(Br)o3)cc2)CC1` to `Cc1ccccc1N1CCN(CN2C(=O)S/C(=C/c3ccco3)C2=O)CC1`, the “% Inhibition @ 10 uM” value rises from -4.12% to 6.78%.

First: Cc1ccc(C2C3CN(C)CC=C3C(C#N)=C(N)C2(C#N)C#N)c(C)c1 (stereo not shown)
Second: COc1ccc(C2C(C#N)=C(N)N(c3ccccc3)C3=C2C(=O)CCC3)cc1 (stereo not shown)
The “% Inhibition @ 10 uM” value of the first is higher: 2.8% for the first, 0.687% for the second.

Going from `CC(C)(C)c1ccc(C2CCCCN2)cc1` (stereo not shown) to `Clc1ccc(NCC2CCCCC2)nn1`, the “% Inhibition @ 10 uM” value rises from -1.06% to 4.11%.

First: c1cnc(NC2CCCCCC2)nc1
Second: OC1(c2ccc(Br)cc2)CCN(C2CCCCCC2)CC1
The “% Inhibition @ 10 uM” value of the first is higher: 3.42% for the first, -1.82% for the second.

Going from `CC1CCN(S(=O)(=O)c2ccc3c(ccn3CCC(=O)NC3CCCC(C)C3C)c2)CC1` (stereo not shown) to `CCC1CCCCN1CCCNC(=O)C1CCN(C(=O)c2cc3sccc3n2C)CC1` (stereo not shown), the “% Inhibition @ 10 uM” value falls from 2.45% to 1.8%.

Compared with `CCn1nccc1C(=O)N(C)C12CC3CC(CC(C3)C1)C2`, `COc1ccc(C(=O)CSc2nnnn2C2CCCCC2)cc1OC` is higher in “% Inhibition @ 10 uM” value: -1.37% for the first, 0.883% for the second.

Going from `CCOC(=O)C1=C(C)OC(N)=C(C#N)C1c1cc(Br)cs1` (stereo not shown) to `N#CC1=C(N)N(c2ccccc2F)C2=C(C(=O)CCC2)C1c1ccsc1` (stereo not shown), the “% Inhibition @ 10 uM” value rises from -3.72% to 3.46%.

First: CC1=[N+]([O-])C(C)(C)[N+]([O-])=C1c1ccc(Cl)cc1
Second: CC1(C)CC2=Nc3nc(C(F)(F)F)nn3C(c3ccccc3F)C2=C(O)C1 (stereo not shown)
The “% Inhibition @ 10 uM” value of the first is higher: 1.84% for the first, 1.73% for the second.

First: CCC1=NN(C(=O)c2ccc(OC)cc2)C(O)(c2ccc(OC)cc2)C1 (stereo not shown)
Second: N#Cc1ccc(Oc2ccc(-c3ccccc3)cc2)cc1C#N
The “% Inhibition @ 10 uM” value of the first is higher: 6.74% for the first, -4.96% for the second.

Going from `CCCN(CCO)Cc1ccc(Cl)cc1Cl` to `Clc1ccc(-c2csc(N3CCOCC3)n2)c(Cl)c1`, the “% Inhibition @ 10 uM” value rises from -2.34% to 8.6%.

Compared with `C=Cc1ccc(Cn2c(C)c(CNCc3ccccc3OC)c(C(=O)O)c2C)cc1`, `CCC(Sc1nc2nccnc2c(=O)n1CCc1ccccc1)C(=O)NCc1ccc(C)cc1` (stereo not shown) is lower in “% Inhibition @ 10 uM” value: 15.3% for the first, 0.813% for the second.

First: CC1=NO[C@]2(C)CCC3C(C)(C)CCC[C@]3(C)[C@H]2C1 (stereo partly shown)
Second: CCOc1cc(C2C=C(c3ccc(F)cc3)Nc3ncnn32)ccc1OC(F)F (stereo not shown)
The “% Inhibition @ 10 uM” value of the first is lower: -3.27% for the first, -1.62% for the second.

First: Cc1ccc(/C(O)=C/c2nc3ccc([N+](=O)[O-])cc3nc2/C=C(\O)c2ccc(C)cc2)cc1
Second: Cc1ccc(OCCOc2ccccc2C=C2C(=O)N(C)C(=O)N(C)C2=O)cc1
The “% Inhibition @ 10 uM” value of the first is higher: 2.6% for the first, -0.467% for the second.

First: CNS(=O)(=O)c1cn(CC(=O)NCc2ccc(F)cc2)cc1S(=O)(=O)NC
Second: O=C1N=C(Nc2ccc(F)cc2)S/C1=C\c1cc(Cl)ccc1O
The “% Inhibition @ 10 uM” value of the first is lower: -1.05% for the first, 28.8% for the second.
